About 6,400 (1.6%) of roughly 410,000 compounds were called active. Inconclusive results, whose numbers are uncertain, are shown with a selection of clear calls. Calls follow the shape of the dose curve; as a rule, active = well fitted inhibition curve with a large enough effect; inconclusive = small, poorly fitted or top-dose-only effect; inactive = no such curve, though single readings can be large or run the other way. Potencies of inconclusive entries are doubtful fits and often do not repeat.
The compounds below were run against Glucagon-like peptide 1 receptor (Homo sapiens) (UniProt P43220) (assay: qHTS of GLP-1 Receptor Inverse Agonists (Inhibition Mode)). Conditions: HEK293 GLP-1R CRE-luciferase, luminescence, 24 h, GLP-1R form is constitutively active; activity change, negative = inhibition: at 38.3 µM (top of the series) unless noted.
UniProt P43220, sequence (P43220 whole entry, looked up): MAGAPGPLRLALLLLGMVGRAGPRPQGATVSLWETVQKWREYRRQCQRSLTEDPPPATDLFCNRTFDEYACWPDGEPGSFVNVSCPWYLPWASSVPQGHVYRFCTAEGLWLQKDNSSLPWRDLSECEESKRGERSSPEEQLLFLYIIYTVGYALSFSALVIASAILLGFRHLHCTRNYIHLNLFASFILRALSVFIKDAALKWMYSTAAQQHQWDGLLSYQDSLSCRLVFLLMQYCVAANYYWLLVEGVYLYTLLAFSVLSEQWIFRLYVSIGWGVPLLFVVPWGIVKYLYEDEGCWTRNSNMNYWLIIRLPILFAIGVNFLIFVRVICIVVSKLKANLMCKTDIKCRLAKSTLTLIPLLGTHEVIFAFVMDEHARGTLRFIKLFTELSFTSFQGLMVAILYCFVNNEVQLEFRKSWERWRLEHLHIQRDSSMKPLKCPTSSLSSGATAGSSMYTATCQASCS
How it was run: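 HEK293 cells stably co-expressing a cAMP-responsive luciferase reporter and constitutively active GLP-1R were seeded, incubated 12 h, then exposed to compounds for 24 h at 37 C. Luminescence was read 12 min after detection reagent; inverse agonists lower signal.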
% is scaled to controls: 0 for no effect and ±100 for the full control effect; potency is read from the fitted curve at half-maximal effect; tags tell the direction and shape of the fitted curve.
Also: nearly all actives have a fitted effect of over 55% in size.

Potency, inconclusive:
O=C(Nc1ccccc1)Oc1ccc[nH]c1=O 12.6 µM [inhibitor, single point], COc1ccc(C(=O)NC2CCCN(Cc3ccccc3F)C2)c(OC)c1OC (configuration not stated) 12.6 µM [inhibitor, single point], Cc1c(Cc2ccc3c(c2)OCO3)sc(NC(=O)c2ccc3ccccc3c2)c1C(N)=O 28.2 µM [inhibitor, single point], CCC(C(=O)Nc1ccc(C)cc1)c1ccccc1 (configuration not stated) 12.6 µM [inhibitor, partial curve, poor fit], CN(CC(=O)Nc1c(Cl)cccc1Cl)CC(=O)N(C)C1(C#N)CCCCC1 7.94 µM [inhibitor, partial curve], O=S(=O)(Nc1ccc(S(=O)(=O)N2CCCCC2)cc1)c1cccs1 31.6 µM [inhibitor, single point], COc1ccccc1CNc1nc(NCc2ccc(C)cc2C)c2sccc2n1 28.2 µM [inhibitor, single point], CCN(CC)S(=O)(=O)c1ccc2c(c1)N(CC(=O)N1CCN(c3cccc(Cl)c3)CC1)C(=O)CO2 28.2 µM [inhibitor, single point], COc1ccc(C(CCN(Cc2ccc(OC)c(OC)c2)C(=O)CCl)c2ccccc2)cc1 (configuration not stated) 28.2 µM [inhibitor, single point], CCc1ccc(NS(=O)(=O)c2ccc3oc(=O)c4ncn(CC)c4c3c2)cc1 22.4 µM [inhibitor, single point], FC(F)(F)c1nnc(-c2ccccc2)nc1Sc1ccccc1 11.2 µM [inhibitor, partial curve, poor fit], COc1cccc(Nc2ccc(Nc3cccc(OC)c3)nn2)c1 10 µM [inhibitor, single point], CCCCOc1ccc(C(=O)NNC(=S)NC(=O)CC)cc1 22.4 µM [inhibitor, single point], CCOC(=O)C1CCC(CN(Cc2ccc(OC)cc2)S(=O)(=O)c2ccc(F)c(C(=O)Nc3ccc(C)c(C)c3)c2)CC1 (configuration not stated) 1.12 µM [inhibitor, full curve, poor fit], COc1ccc(-n2c(Cc3ccccc3)nnc2SCc2nc(-c3cccs3)no2)cc1 28.2 µM [inhibitor, single point]

Activity change, negative = inhibition, inactive:
COc1ccccc1N1CCN(C(=O)Cn2ncc3ccsc3c2=O)CC1 9.38%, CCC1CN(C(=O)N2CCC(C(=O)NCCc3cc(OC)ccc3OC)CC2)c2ccccc2O1 (configuration not stated) 5.85%
